This is an account of results in PubChem BioAssay (NCI).

What all share (assay): growth of human tumour cells (NCI), 48 h
Experiment [1] relates to 786-0 renal.
Experiment [2] relates to RXF 393 renal.
Experiment [3] has as its system UACC-62 melanoma.
In experiment [4] the test system is U251 CNS.
Experiment [5] relates to K-562 leukemia.
Experiment [6] has as its system HS 578T breast.
The test system of experiment [7] is KM12 colon.
Experiment [8] relates to RPMI-8226 leukemia.
For experiment [9], the system named is NCI-H522 lung.
The subject of experiment [10] is MCF7 breast.
Experiment [11] concerns PC-3 prostate.
The test system of experiment [12] is UO-31 renal.
Experiment [13] has as its system NCI/ADR-RES ovarian.
The test system of experiment [14] is LOX IMVI melanoma.
For experiment [15], the system named is CCRF-CEM leukemia.
The subject of experiment [16] is MOLT-4 leukemia.
In experiment [17] the test system is SK-MEL-5 melanoma.
Experiment [18] has as its system SW-620 colon.
Experiment [19] has as its system NCI-H460 lung.
For experiment [20], the system named is SNB-75 CNS.
Experiment [21] deals with SF-539 CNS.
Experiment [22] deals with SF-295 CNS.
Experiment [23] deals with SR leukemia.
Experiment [24] concerns IGROV1 ovarian.
The subject of experiment [25] is M14 melanoma.
Experiment [26] has as its system ACHN renal.
Experiment [27] concerns SF-268 CNS.
The subject of experiment [28] is OVCAR-5 ovarian.

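Exposure lasted 48 hours, with cells grown in 96-well plates and compounds tested at five concentrations. Abbreviation: GI50, concentration required for 50% inhibition of growth.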 For part of its entries the source gives two or more results. Only these are listed. The source may hold further records. For part of these data: Records of one sample usually come from different ranges of test concentrations, not given here; some values may only mark the edge of a range. For part of these data: Results that share an entry are repeated measurements across runs, samples, wells, individuals or studies. Records carry a tag for their origin. The letters are not those of the source and start again with each entry.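 The concentration for full growth arrest is given as TGI.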 A value given as a limit tells only on which side of the number the result lay.

As to `COc1cc(/C=C/c2cc(O)c(C/C=C(\C)CC/C=C(\C)CO)c(O)c2)cc2c1O[C@]1(C)CC[C@@H](O)C(C)(C)[C@H]1C2`, the TGI in experiment [1] is 1.2 µM [1 test] and > 100 µM [mean of 2 tests]; in [3] it was 1.39 µM [1 test] and 27 µM [mean of 2 tests]; in experiment [5], 2.39 µM [1 test] and > 33.5 µM [mean of 2 tests]; in [6], 895 nM [1 test] and 10.2 µM [mean of 2 tests]; in experiment [8], 28.8 nM and 2.54 µM; in experiment [9], 8.7 µM [1 test] and > 100 µM [mean of 2 tests]. For the same compound, the TGI was 4.57 µM [1 test] and > 83.8 µM [mean of 2 tests] in [10]; 3.5 µM [1 test] and > 100 µM [mean of 2 tests] in experiment [12]; 3.83 µM [1 test] and 42.5 µM [mean of 2 tests] in experiment [14]; 4.45 µM and > 100 µM in experiment [15]; 1.92 µM [1 test] and 21.9 µM [mean of 2 tests] in [17]; 6.07 µM [1 test] and > 89.7 µM [mean of 2 tests] in experiment [18]. Further, the GI50 in experiment [2] was 357 nM and 19.6 µM; in experiment [3] it was 229 nM [1 test] and 5.52 µM [mean of 2 tests]; in experiment [4], 267 nM [1 test] and 3.23 µM [mean of 2 tests]; in experiment [5], 268 nM [1 test] and 4.88 µM [mean of 2 tests]; in experiment [6], 62.7 nM [1 test] and 1.08 µM [mean of 2 tests]; in [7], 1.55 µM [1 test] and > 69.1 µM [mean of 2 tests]. In addition, the GI50 in experiment [8] is 3.25 nM and 428 nM; in experiment [9], 4.53 µM [1 test] and > 63.2 µM [mean of 2 tests]; in [10], 341 nM [1 test] and 17.7 µM [mean of 2 tests]; in [11], 68.8 nM [1 test] and 11.2 µM [mean of 2 tests]; in experiment [13] it was 7.99 µM [1 test] and > 82.4 µM [mean of 2 tests]; in experiment [14], 329 nM [1 test] and 10.9 µM [mean of 2 tests]. Also, the GI50 in experiment [15] was 214 nM and 2.43 µM; in experiment [16], 31.1 nM [1 test] and 3.44 µM [mean of 2 tests]; in [17] it was 260 nM [1 test] and 5.22 µM [mean of 2 tests]; in experiment [19], 313 nM [1 test] and 10.7 µM [mean of 2 tests].

With `CCN(CCO)CCCOc1ccc2c(Nc3cc(CC(=O)Nc4cccc(F)c4)[nH]n3)ncnc2c1`, the GI50 in experiment [2] was 30.5 µM [sample A, mean of 2 tests] and 25 nM [sample B, 1 test]; in [20], 3.61 µM [sample A, mean of 2 tests] and 24.3 nM [sample B, 1 test]; in experiment [21], 1.95 µM [sample A, mean of 2 tests] and 142 nM [sample B, mean of 2 tests]; in [10], 4.36 µM [sample A, mean of 2 tests] and 79.4 nM [sample B, mean of 2 tests]; in experiment [22], 14.8 µM [sample A, mean of 2 tests] and 186 nM [sample B, mean of 2 tests]; in experiment [23], 723 nM [sample A, 1 test] and 16.2 nM [sample B, mean of 2 tests]. The TGI was > 94.6 µM [sample A, mean of 2 tests] and 122 nM [sample B, 1 test] in [2]; 55.9 µM [sample A, mean of 2 tests] and 262 nM [sample B, 1 test] in experiment [20].

As for `CNc1ncc2cc(-c3cc(NC(=O)NCCC(C)(C)C)c(F)cc3C)c(C)nc2n1`, the TGI is 17.4 µM [sample A, mean of 2 tests] and 1.28 µM [sample B, mean of 2 tests] in [24]; 165 nM [sample A, mean of 2 tests] and > 2.03 µM [sample B, mean of 2 tests] in [25].

In the case of `CCc1ccc([O-])c(C=NCCCN(C)CCCN=Cc2cc(C)ccc2[O-])c1.[Co+3].[N-]=[N+]=[N-]`, the TGI in experiment [5] is 5 µg/mL [1 test] and > 150 µg/mL [mean of 2 tests]; in experiment [20], 4.96 µg/mL [1 test] and 32.4 µg/mL [mean of 2 tests].

Regarding `COC(=O)c1ccc2c(C(=Nc3ccc(N(C)C(=O)CN4CCN(C)CC4)cc3)c3ccccc3)c(O)[nH]c2c1`, the TGI is 6.79 µM [sample A, mean of 2 tests] and > 100 µM [sample B, 1 test] in [4]; 5.11 µM [sample A, mean of 3 tests] and > 62.6 µM [sample B, mean of 2 tests] in experiment [6]; 6.41 µM [sample A, mean of 3 tests] and > 100 µM [sample B, mean of 2 tests] in experiment [26]; 5.3 µM [sample A, mean of 3 tests] and > 100 µM [sample B, 1 test] in experiment [27]; 9.74 µM [sample A, mean of 2 tests] and > 100 µM [sample B, mean of 2 tests] in [28].
